{
  "source": "PubChem BioAssay AID1508642",
  "about": "(National Center for Advancing Translational Sciences (NCATS), 2021)",
  "note": "Screen size: about 43,000 compounds; about 200 (0.47%) were called active. About 12% were inconclusive and are not listed. Calls come from the whole dose curve; as a rule, active = well fitted cell-killing curve with a large enough effect; inconclusive = small, poorly fitted or top-dose-only effect, or effect the other way; inactive = flat fitted curve, though single readings scatter. The list shows a part of the results. % is set by controls: 0 for no effect and ±100 for the full control effect.",
  "data": [
    {"test": "Cell viability qHTS assay in S16 Pmp22-F2sN cells; note: nearly all actives have a fitted effect of over 65% in size", "conditions": "S16 Pmp22-F2sN Schwann cells (luciferase reporters placed in the Pmp22 gene) viability, CellTiter-Glo, 24 h; series mostly up to 57.5 µM; activity change, negative = cytotoxicity: at the top concentration", "summary_of_the_method": "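Luminescence from CellTiter-Glo, read by CCD camera after a 15 min room-temperature incubation, served as the viability signal. Reporter Schwann cells (S16 Pmp22-F2sN) had been treated with pin-transferred compounds for 24 h at 37C.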", "values": [
      {"smiles": "Cc1ccc(S(N)(=O)=O)cc1NC(=O)c1c(-c2c(Cl)cccc2Cl)noc1C", "activity change, negative = cytotoxicity": "inactive: 0.847%"},
      {"smiles": "Cc1cccc(CSc2ncc(Cl)c(C(=O)Nc3nnc(C)s3)n2)c1", "activity change, negative = cytotoxicity": "inactive: -10.1%"},
      {"smiles": "Cc1ccc(CNC(=O)CN2C(=O)C3CCCCN3c3ccc(C(=O)N(C)C)cc32)cc1", "note": "(stereo unspecified)", "activity change, negative = cytotoxicity": "inactive: 6.06%"},
      {"smiles": "COc1ccccc1NC(=O)CN1C(=O)C(C)(C)c2ccccc21", "activity change, negative = cytotoxicity": "inactive: 2.32%"},
      {"smiles": "COc1ccccc1C(=O)Nc1ccccc1C(=O)OCc1cc(=O)n2ccsc2n1", "activity change, negative = cytotoxicity": "inactive: 15.8%"},
      {"smiles": "CCOC(=O)c1sc(NC(=O)c2nc3nc(C)cc(C(F)F)n3n2)c(C(=O)OC(C)C)c1C", "activity change, negative = cytotoxicity": "inactive: 10.1%"},
      {"smiles": "Cc1ccc(-c2nc(CCNC(=O)C(=O)Nc3ccc(C)c(Cl)c3)cs2)cc1", "activity change, negative = cytotoxicity": "inactive: 2.94%"},
      {"smiles": "CCCN(CCC)C(=O)Cn1c(SCc2cccc(F)c2)nc2cccnc21", "activity change, negative = cytotoxicity": "inactive: -9.45%"},
      {"smiles": "CCN1C(=O)N(c2ccc(C(C)=O)cc2)S(=O)(=O)c2ccccc21", "activity change, negative = cytotoxicity": "inactive: 5.17%"},
      {"smiles": "CSc1ccc(CCNC(=O)Cn2ncn3c(cc4ccccc43)c2=O)cc1", "activity change, negative = cytotoxicity": "inactive: -0.16%"},
      {"smiles": "Cc1ccccc1Nc1c(-c2cccnc2)nc2cccc(C)n12", "activity change, negative = cytotoxicity": "inactive: 4.71%"},
      {"smiles": "Cc1cccc(NC(=O)C2CCCN(S(=O)(=O)c3c(C)n[nH]c3C)C2)c1", "note": "(stereo unspecified)", "activity change, negative = cytotoxicity": "inactive: 2.38%"},
      {"smiles": "CCC(C(=O)Nc1ccccc1)n1nc(-c2cc(C)ccc2C)ccc1=O", "note": "(stereo unspecified)", "activity change, negative = cytotoxicity": "inactive: 7.83%"},
      {"smiles": "CCN(C(=O)c1cc2c(=O)n(CC)c3ccccc3c2s1)c1cccc(C(F)(F)F)c1", "activity change, negative = cytotoxicity": "inactive: -5.07%"},
      {"smiles": "Cn1nc(-c2ccc(OCC(=O)Nc3ccc(Cl)cc3)cc2)c2ccccc2c1=O", "activity change, negative = cytotoxicity": "inactive: -5.46%"},
      {"smiles": "CCOc1ccc(-c2nnc(SCC(=O)NC(C)CC)nc2-c2ccc(OCC)c(OC)c2)cc1OC", "note": "(stereo unspecified)", "activity change, negative = cytotoxicity": "inactive: 5.93%"},
      {"smiles": "COc1cccc(NC(=O)Cn2c(=O)ccc3cc(S(=O)(=O)N4CCC(C)CC4)ccc32)c1", "activity change, negative = cytotoxicity": "inactive: 6.2%"},
      {"smiles": "COc1ccc(Cl)cc1S(=O)(=O)N1CCN(CC(=O)Nc2ccccc2C(F)(F)F)CC1", "activity change, negative = cytotoxicity": "inactive: 0.752%"},
      {"smiles": "CCOc1ccc(-n2nc3ccc(NC(=O)c4cccc(F)c4)cc3n2)cc1", "activity change, negative = cytotoxicity": "inactive: 21.6%"},
      {"smiles": "CCSc1nc2c([nH]c3ccccc32)c(=O)n1-c1cccc(OC)c1", "activity change, negative = cytotoxicity": "inactive: 14.3%"},
      {"smiles": "COc1ccc(-c2nc(CCNC(=O)c3c(F)cccc3Cl)cs2)cc1", "activity change, negative = cytotoxicity": "inactive: -6.24%"},
      {"smiles": "CCCCNc1ccc(-c2nc(-c3ccncc3)no2)cc1[N+](=O)[O-]", "activity change, negative = cytotoxicity": "inactive: 22.9%"},
      {"smiles": "CCCCc1nn2c(=O)cc(COC(=O)c3ccco3)nc2s1", "activity change, negative = cytotoxicity": "inactive: 20.1%"},
      {"smiles": "CC(=O)Nc1nonc1-c1nnc(SCC(=O)Nc2cccc(C)c2C)n1-c1ccccc1", "activity change, negative = cytotoxicity": "inactive: -4.02%"},
      {"smiles": "COc1cc(C(=O)Nc2cccc(OCc3cc(=O)n4cc(C)sc4n3)c2)cc(OC)c1OC", "activity change, negative = cytotoxicity": "inactive: 29.7%"},
      {"smiles": "COc1ccc(Cn2cc(C(=O)c3ccc(F)cc3)c(=O)c3cc4c(cc32)OCCO4)cc1", "activity change, negative = cytotoxicity": "inactive: 3.1%"},
      {"smiles": "Cc1nn(C)c(C)c1CCNC(=O)Nc1cccc(Cl)c1C", "activity change, negative = cytotoxicity": "inactive: 6.82%"},
      {"smiles": "COc1ccc(-c2nc3ccccc3o2)cc1NC(=O)c1ccc(-c2ccc(Br)cc2)o1", "activity change, negative = cytotoxicity": "inactive: 14.2%"},
      {"smiles": "CCOC(=O)c1nn2c(C(F)(F)F)cc(-c3ccc(C)cc3)nc2c1Cl", "activity change, negative = cytotoxicity": "inactive: 11.5%"},
      {"smiles": "CCCCC(=O)Nc1nnc(SCc2cc(=O)n3cc(C)ccc3n2)s1", "activity change, negative = cytotoxicity": "inactive: 0.857%"},
      {"smiles": "O=C(Nc1ccc(F)c(F)c1)c1cc(S(=O)(=O)NCc2ccc3c(c2)OCO3)ccc1F", "activity change, negative = cytotoxicity": "inactive: -6.37%"},
      {"smiles": "COc1ccc(C2=NC3(CCCCCC3)N(CC(=O)Nc3cccc(Cl)c3)C2=O)cc1", "activity change, negative = cytotoxicity": "inactive: -23.8%"},
      {"smiles": "Cc1ccn2c(Nc3ccc4c(c3)OCO4)c(-c3ccc(Cl)cc3)nc2c1", "activity change, negative = cytotoxicity": "inactive: -0.272%"},
      {"smiles": "COc1cccc(CNC(=O)CN2CCCN(Cc3ccccc3)S2(=O)=O)c1", "activity change, negative = cytotoxicity": "inactive: -4.2%"},
      {"smiles": "Cc1ccc(CNC(=O)CSc2nc(=O)n(Cc3ccco3)c3c2CCC3)cc1", "activity change, negative = cytotoxicity": "inactive: 1.39%"},
      {"smiles": "COc1ccc(-c2c(C#N)c(SCC(=O)Nc3ccc(C)cc3)nc(C)c2C(=O)Nc2ccccc2)cc1", "activity change, negative = cytotoxicity": "inactive: -5.51%"},
      {"smiles": "Cc1ccc2c(c1)cc1c(=O)n(CC(=O)NC(C)CCc3ccccc3)nc(C)n12", "note": "(stereo unspecified)", "activity change, negative = cytotoxicity": "inactive: 13.1%"},
      {"smiles": "CCOc1nc(NC(=O)NS(=O)(=O)Oc2cccc(Cl)c2)nc(-c2ccccc2)n1", "activity change, negative = cytotoxicity": "inactive: -0.0426%"},
      {"smiles": "Cn1c2c(c(=O)n(C)c1=O)C(c1ccccc1[N+](=O)[O-])CC(=O)N2", "note": "(stereo unspecified)", "activity change, negative = cytotoxicity": "inactive: 22.6%"},
      {"smiles": "COc1ccc(-c2nn(-c3ccc(F)cc3)c3c2cnc2cc4c(cc23)OCO4)cc1", "activity change, negative = cytotoxicity": "inactive: 9.46%"},
      {"smiles": "CCc1ccccc1NC(=O)CSc1nc2n[nH]c(C)c2c(=N)n1-c1cccc(C)c1", "activity change, negative = cytotoxicity": "inactive: -10.5%"},
      {"smiles": "CCc1ccc(NC(=O)c2cc(S(=O)(=O)N3CCCCC3)c[nH]2)cc1", "activity change, negative = cytotoxicity": "inactive: -0.36%"},
      {"smiles": "COc1ccc(C2c3c(n(C)c4ccccc34)C(=O)N2CC(=O)Nc2ccccc2Cl)cc1", "note": "(stereo unspecified)", "activity change, negative = cytotoxicity": "inactive: -4.06%"},
      {"smiles": "COc1cc(NC(=O)c2cc3nc(-c4ccc(C)cc4)cc(C(F)(F)F)n3n2)cc(OC)c1OC", "activity change, negative = cytotoxicity": "inactive: 27.3%"},
      {"smiles": "COc1ccc(CCNC(=O)c2c[nH]n3c(=O)c(Cc4ccccc4Cl)c(C)nc23)cc1OC", "activity change, negative = cytotoxicity": "inactive: -16.9%"},
      {"smiles": "O=C(Nc1cc(-c2nc3cc(Cl)ccc3o2)ccc1Cl)c1cccc2ccccc12", "activity change, negative = cytotoxicity": "inactive: -0.532%"},
      {"smiles": "CCn1c2c(c(=O)n3ncc(C(=O)Nc4ccc(OC(F)(F)F)cc4)c13)CN(Cc1ccc(OC)cc1)CC2", "activity change, negative = cytotoxicity": "inactive: -0.125%"},
      {"smiles": "COc1ccc(OCc2ccc(-c3nc(C#N)c(N4CCC(C(N)=O)CC4)o3)o2)cc1", "activity change, negative = cytotoxicity": "inactive: -1.67%"},
      {"smiles": "Cc1ccc(CNC(=O)c2nnn(Cc3ccc(F)cc3)c2N)cc1", "activity change, negative = cytotoxicity": "inactive: 0.762%"},
      {"smiles": "CC(=O)c1cccc(NC(=O)Cn2c(=O)oc3cc(S(=O)(=O)NCc4ccccc4)ccc32)c1", "activity change, negative = cytotoxicity": "inactive: -1.32%"},
      {"smiles": "O=S(=O)(Nc1ccc(F)cc1F)c1ccc(Br)s1", "activity change, negative = cytotoxicity": "inactive: 5.21%"},
      {"smiles": "COc1ccc(CNS(=O)(=O)c2ccc3c(c2)NC(=O)C(C)C(=O)N3)cc1", "note": "(stereo unspecified)", "activity change, negative = cytotoxicity": "inactive: 18%"},
      {"smiles": "Cc1nnc(N2CCC(C(=O)N3CCCCC3)CC2)c2nn(-c3ccccc3)c(C)c12", "activity change, negative = cytotoxicity": "inactive: -16.3%"},
      {"smiles": "Cc1ccc(C)c(S(=O)(=O)Nc2ccc3c(c2)CCCN3C(=O)c2cccs2)c1", "activity change, negative = cytotoxicity": "inactive: -20%"},
      {"smiles": "Cc1ccc(C)c(Nc2ncnc3c2cnn3-c2ccc(F)cc2)c1", "activity change, negative = cytotoxicity": "inactive: 2.16%"},
      {"smiles": "Fc1ccc([C@@H]2Nc3ccccc3[C@@H]3C=CC[C@@H]32)cc1", "activity change, negative = cytotoxicity": "inactive: -6.45%"},
      {"smiles": "Cc1ccc(C)c(NC(=O)CSc2ncc3c(n2)-c2ccccc2N(Cc2ccccc2C)S3(=O)=O)c1", "activity change, negative = cytotoxicity": "inactive: -0.412%"},
      {"smiles": "O=C(Cn1cc(S(=O)(=O)c2ccc(Cl)cc2)c(=O)c2ccccc21)Nc1ccc2c(c1)OCO2", "activity change, negative = cytotoxicity": "inactive: 12.6%"},
      {"smiles": "COc1ccc(/C=C/c2nc(C#N)c(N3CCCCCC3)o2)cc1OC", "activity change, negative = cytotoxicity": "inactive: -29.6%"},
      {"smiles": "CCCc1c(C(=O)OCC)nnc2c(-c3ccccc3)c(C)nn12", "activity change, negative = cytotoxicity": "inactive: 2.86%"},
      {"smiles": "COc1ccc(CCN2C(=O)N(c3ccc(F)cc3)C(=O)C2CC(=O)Nc2ccccc2)cc1OC", "note": "(stereo unspecified)", "activity change, negative = cytotoxicity": "inactive: -3.47%"}
    ]}
  ]
}
